Reference: PubChem BioAssay AID1745853 (National Center for Advancing Translational Sciences (NCATS), 2022)
Some of the results follow. These are further read-outs of the screen, such as a control signal, another cell line or another target. No call is given for them.

Experiments:
Assay in all cases: Primary Screen for Target Class Profiling of Small Molecule Inhibitors of Methyltransferases
[1] = biological target: Glycine N-methyltransferase (Homo sapiens) (UniProt Q14749); settings: purified enzyme, MTase-Glo SAH luminescence; measured here: GNMT inhibition; at 40 µM; stronger effect = lower value
Method in brief: (§1)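 Each enzyme was reacted with SAM and its substrate, with compounds tested once at 40 uM; SAH formed was read by MTase-Glo luminescence.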

[2] = biological target: Guanidinoacetate N-methyltransferase (Homo sapiens) (UniProt Q14353); settings: purified enzyme, MTase-Glo SAH luminescence; measured here: GAMT inhibition; at 40 µM; stronger effect = lower value
Method in brief: as §1

[3] = biological target: Histamine N-methyltransferase (Homo sapiens) (UniProt P50135); settings: purified enzyme, MTase-Glo SAH luminescence; measured here: HNMT inhibition; at 40 µM; stronger effect = lower value
Method in brief: as §1

[4] = biological target: Nicotinamide N-methyltransferase (Homo sapiens) (UniProt P40261); settings: purified enzyme, MTase-Glo SAH luminescence; measured here: NNMT inhibition; at 40 µM; stronger effect = lower value
Method in brief: as §1

[5] = biological target: Phenylethanolamine N-methyltransferase (Homo sapiens) (UniProt P11086); settings: purified enzyme, MTase-Glo SAH luminescence; measured here: PNMT inhibition; at 40 µM; stronger effect = lower value
Method in brief: as §1
On the % scale 0 is the no-effect control and ±100 the full control effect.

## CC(C)n1nc(CNC(=O)c2ccc(F)c(F)c2)c2ccccc21
[1]
  activity change, negative = inhibition: 14.8%
[2]
  activity change, negative = inhibition: 5.17%
[3]
  activity change, negative = inhibition: 13.3%
[4]
  activity change, negative = inhibition: 6.88%
[5]
  activity change, negative = inhibition: 8.37%

## Cc1c(Cl)cccc1N1C(=O)c2cc(C3CC3)nn2CC1(C)C(=O)NC1CCCCCC1 (stereo not given)
[1]
  activity change, negative = inhibition: -6%
[2]
  activity change, negative = inhibition: 4.68%
[3]
  activity change, negative = inhibition: -3.2%
[4]
  activity change, negative = inhibition: 0.937%
[5]
  activity change, negative = inhibition: -2.92%

## CCC(C)NC(=O)c1ccc2c(=O)n(C3CC3)c3nn(CC(=O)Nc4ccc(C)cc4)c(=O)n3c2c1 (stereo not given)
[1]
  activity change, negative = inhibition: -3.79%
[2]
  activity change, negative = inhibition: 2.41%
[3]
  activity change, negative = inhibition: 0.011%
[4]
  activity change, negative = inhibition: -6.25%
[5]
  activity change, negative = inhibition: 0.442%

## CC1CCCCN1C(=O)C1COC2(CCN(C(=O)c3ccco3)CC2)N1C(=O)c1ccccc1 (stereo not given)
[1]
  activity change, negative = inhibition: -3.44%
[2]
  activity change, negative = inhibition: -2.45%
[3]
  activity change, negative = inhibition: -1.3%
[4]
  activity change, negative = inhibition: -2.22%
[5]
  activity change, negative = inhibition: 2.78%

## CN1C(=O)c2cc(C(=O)N3CCN(Cc4ccccc4)CC3)nn2CC1(C)C(=O)NC1CCCCC1 (stereo not given)
[1]
  activity change, negative = inhibition: -4.04%
[2]
  activity change, negative = inhibition: -6.15%
[3]
  activity change, negative = inhibition: 1.75%
[4]
  activity change, negative = inhibition: -1.13%
[5]
  activity change, negative = inhibition: -2.27%

## CN(C)c1ccc(CNC(=O)Cn2ccc3cc(S(=O)(=O)N4CCCCC4)ccc32)cc1
[1]
  activity change, negative = inhibition: -2.66%
[2]
  activity change, negative = inhibition: -1.46%
[3]
  activity change, negative = inhibition: -2.76%
[4]
  activity change, negative = inhibition: -5.29%
[5]
  activity change, negative = inhibition: -2.82%

## CN1CCN(C(=O)c2cc(-c3cccnc3)nc3c2cnn3C)CC1
[1]
  activity change, negative = inhibition: -4.94%
[2]
  activity change, negative = inhibition: -5.29%
[3]
  activity change, negative = inhibition: -3.28%
[4]
  activity change, negative = inhibition: -10.4%
[5]
  activity change, negative = inhibition: -3.11%

## COc1ccc(OCC2CN(Cc3cccs3)[S+](=O)([O-])c3cccnc3O2)cc1 (stereo not given)
[1]
  activity change, negative = inhibition: -4.13%
[2]
  activity change, negative = inhibition: -1.04%
[3]
  activity change, negative = inhibition: 1.62%
[4]
  activity change, negative = inhibition: -5.66%
[5]
  activity change, negative = inhibition: -18.5%

## CCN(CC)CC#CCOC(=O)C(O)(c1ccccc1)C1CCCCC1 (stereo not given)
[1]
  activity change, negative = inhibition: -2.58%
[2]
  activity change, negative = inhibition: 6.56%
[3]
  activity change, negative = inhibition: 0.179%
[4]
  activity change, negative = inhibition: -11.5%
[5]
  activity change, negative = inhibition: 2.95%

## CC1(C)C[C@H]2C3=CCC4[C@@]5(C)CC[C@H](O[C@H]6O[C@H](C(=O)O)[C@@H](O)[C@H](O)[C@H]6O[C@H]6O[C@H](CO)[C@@H](O)[C@H](O)[C@H]6O[C@@H]6O[C@H](CO)[C@@H](O)[C@H](O)[C@H]6O)[C@](C)(CO)C5CC[C@@]4(C)[C@]3(C)CC[C@@]2(C)[C@H](O[C@@H]2OC[C@H](O)[C@H](OC3O[C@H](CO)[C@@H](O)[C@H](O)[C@H]3O)[C@H]2O)[C@@H]1O (stereo not given in full)
[1]
  activity change, negative = inhibition: 4.44%
[2]
  activity change, negative = inhibition: 5.64%
[3]
  activity change, negative = inhibition: 4.74%
[4]
  activity change, negative = inhibition: -7.2%
[5]
  activity change, negative = inhibition: 2.93%

## O=C1CCCN1CCCNc1nc2c(-c3cccc(F)c3)nnn2c2ccc(Cl)cc12
[1]
  activity change, negative = inhibition: -6.05%
[2]
  activity change, negative = inhibition: 5.04%
[3]
  activity change, negative = inhibition: 5.33%
[4]
  activity change, negative = inhibition: 5.07%
[5]
  activity change, negative = inhibition: -3.03%

## O=C1N(Cc2ccccc2F)CCOC12CCN([S+](=O)([O-])c1cccnc1)CC2
[1]
  activity change, negative = inhibition: -5.39%
[2]
  activity change, negative = inhibition: 2.66%
[3]
  activity change, negative = inhibition: 1.24%
[4]
  activity change, negative = inhibition: 1.19%
[5]
  activity change, negative = inhibition: 3.66%

## Cc1cc(C(=O)N2c3ccccc3CC2c2nnc(C(C)C)o2)nn1C (stereo not given)
[1]
  activity change, negative = inhibition: -2.3%
[2]
  activity change, negative = inhibition: 2.52%
[3]
  activity change, negative = inhibition: 0.881%
[4]
  activity change, negative = inhibition: -0.182%
[5]
  activity change, negative = inhibition: -8.46%

## CC[C@@H](C)[C@H]1O[C@]2(CC[C@H]1C)C[C@@H]1C[C@@H](CC=C(C)[C@@H](O[C@H]3C[C@H](OC)[C@@H](O[C@H]4C[C@H](OC)[C@@H](O)[C@H](C)O4)[C@H](C)O3)[C@@H](C)C=CC=C3CO[C@@H]4[C@H](O)C(C)=C[C@@H](C(=O)O1)[C@]34O)O2
[1]
  activity change, negative = inhibition: -1.75%
[2]
  activity change, negative = inhibition: 4.89%
[3]
  activity change, negative = inhibition: -0.536%
[4]
  activity change, negative = inhibition: -12.2%
[5]
  activity change, negative = inhibition: -1.68%

## OC(CCN1CCCCC1)(c1ccccc1)C1CC2C=CC1C2 (stereo not given)
[1]
  activity change, negative = inhibition: -2.92%
[2]
  activity change, negative = inhibition: 7.77%
[3]
  activity change, negative = inhibition: -3.26%
[4]
  activity change, negative = inhibition: -7.1%
[5]
  activity change, negative = inhibition: 7.82%

## COc1ccc(NC(=O)c2ccc3c(c2)N(C(=O)c2ccc(OC)cc2)CC3)cc1
[1]
  activity change, negative = inhibition: -3.5%
[2]
  activity change, negative = inhibition: -1.89%
[3]
  activity change, negative = inhibition: -0.985%
[4]
  activity change, negative = inhibition: -4.75%
[5]
  activity change, negative = inhibition: -3.05%

## COc1ccc(NC(=O)c2ccc(-c3ccc(-c4nnc(C)o4)cc3C)cc2)cc1N1CCN(C)CC1
[1]
  activity change, negative = inhibition: -19.4%
[2]
  activity change, negative = inhibition: 5.75%
[3]
  activity change, negative = inhibition: -17.2%
[4]
  activity change, negative = inhibition: -25.7%
[5]
  activity change, negative = inhibition: 0.394%

## COc1ccccc1CN1C(=O)c2cc(-c3cccs3)nn2CC1(C)C(=O)NC1CCCCC1 (stereo not given)
[1]
  activity change, negative = inhibition: -0.286%
[2]
  activity change, negative = inhibition: 4.66%
[3]
  activity change, negative = inhibition: 3.65%
[4]
  activity change, negative = inhibition: 4.65%
[5]
  activity change, negative = inhibition: -1.48%

## Cc1ccc(N2C(=O)c3nc4ccccc4n3CC2(C)C(=O)NC2CCCC(C)C2C)cc1 (stereo not given)
[1]
  activity change, negative = inhibition: 2.46%
[2]
  activity change, negative = inhibition: 0.997%
[3]
  activity change, negative = inhibition: 0.5%
[4]
  activity change, negative = inhibition: 5.22%
[5]
  activity change, negative = inhibition: -1.3%

## CC(C)CCN1C(=O)c2ccccc2CC1(C)C(=O)NC1CCCCCC1 (stereo not given)
[1]
  activity change, negative = inhibition: -6.24%
[2]
  activity change, negative = inhibition: 6.01%
[3]
  activity change, negative = inhibition: 3.63%
[4]
  activity change, negative = inhibition: -1.19%
[5]
  activity change, negative = inhibition: -4.35%

## CCCn1c(=O)c2ccc(C(=O)NC3CCCC3)cc2n2c(=O)n(Cc3cc(C)ccc3C)nc12
[1]
  activity change, negative = inhibition: 1.82%
[2]
  activity change, negative = inhibition: 0%
[3]
  activity change, negative = inhibition: 8.59%
[4]
  activity change, negative = inhibition: -4.25%
[5]
  activity change, negative = inhibition: -0.478%

## CCc1ccc(NC(=O)CSc2nnc3n(Cc4ccc(F)cc4)c(=O)c4ccccc4n23)cc1
[1]
  activity change, negative = inhibition: 4.66%
[2]
  activity change, negative = inhibition: 4.52%
[3]
  activity change, negative = inhibition: 11.1%
[4]
  activity change, negative = inhibition: 3.89%
[5]
  activity change, negative = inhibition: 4.05%

## COc1ccc(OC)c2c1cc1n2CC(C)(C(=O)NC2CCC(C)CC2)N(Cc2cccs2)C1=O (stereo not given)
[1]
  activity change, negative = inhibition: -7.24%
[2]
  activity change, negative = inhibition: -2.97%
[3]
  activity change, negative = inhibition: -4.68%
[4]
  activity change, negative = inhibition: -5.46%
[5]
  activity change, negative = inhibition: -4.3%

## Cc1ccc(C(=O)N2CCC(N3C(=O)CCC3C(=O)NCc3cccnc3)CC2)cc1F (stereo not given)
[1]
  activity change, negative = inhibition: 0.239%
[2]
  activity change, negative = inhibition: -2.26%
[3]
  activity change, negative = inhibition: 1.47%
[4]
  activity change, negative = inhibition: -3.84%
[5]
  activity change, negative = inhibition: 14.3%

## O=C1Nc2ccccc2C(O)(c2ccccc2)C1O (stereo not given)
[1]
  activity change, negative = inhibition: 0%
[2]
  activity change, negative = inhibition: -3.54%
[3]
  activity change, negative = inhibition: 1.97%
[4]
  activity change, negative = inhibition: -15.4%
[5]
  activity change, negative = inhibition: 3.47%

## CCCN(Cc1nccn1C)C(=O)c1cn(Cc2ccc(F)cc2)nn1
[1]
  activity change, negative = inhibition: 1.02%
[2]
  activity change, negative = inhibition: 2.83%
[3]
  activity change, negative = inhibition: 2.32%
[4]
  activity change, negative = inhibition: 1.59%
[5]
  activity change, negative = inhibition: 0.837%

## C[C@@H]1O[C@@H](O[C@H]2[C@H](O[C@H]3[C@H](O[C@H]4CC[C@@]5(C)C(CC[C@]6(C)C5CC=C5[C@@H]7CC(C)(C)C[C@@H](O)[C@]7(C)CC[C@]56C)[C@@]4(C)CO)O[C@H](C(=O)O)[C@@H](O)[C@@H]3O)OC[C@H](O)[C@@H]2O)[C@H](O)[C@H](O)[C@H]1O (stereo not given in full)
[1]
  activity change, negative = inhibition: -0.266%
[2]
  activity change, negative = inhibition: -2.41%
[3]
  activity change, negative = inhibition: -1.26%
[4]
  activity change, negative = inhibition: -26.9%
[5]
  activity change, negative = inhibition: 5.08%
